Source: PubChem BioAssay (Tox21)
The inconclusive results got no clear call from the source; some entries with a clear call stand among them for comparison. For some of these results: Where the call is inconclusive, the potency comes from a doubtful curve fit. Calls of active or inactive are those of the source. Unless noted, the call rests on the fitted dose curve.

Columns and labels:
[1] = target: Estrogen receptor beta (Homo sapiens) (UniProt Q92731); experiment: qHTS assay to identify small molecule agonists of the estrogen receptor beta (ER-beta) signaling pathway (AID 1259377; active means well fitted activation curve with a large enough effect in the signal ratio in the repeat runs, not every such curve was filed as active; inconclusive means weak or mixed curves, or effect the other way; the % refers to the signal ratio; further: potency means the concentration at half of the fitted maximal effect); settings: ER-beta-UAS-bla HEK293T, beta-lactamase FRET ratio, 16 h; activation: at 92.4 µM (top of the series) unless noted
In short: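 ER-beta-UAS-bla HEK293T cells in medium with 2% charcoal-stripped FBS were exposed to compounds for 16 h at 37C. Beta-lactamase reporter activity was read as fluorescence after 2 h with LiveBLAzer B/G FRET substrate at room temperature.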

[2] = target: Estrogen receptor beta (Homo sapiens) (UniProt Q92731); experiment: qHTS assay to identify small molecule antagonists of the estrogen receptor beta (ER-beta) signaling pathway (AID 1259378; active means well fitted inhibition curve with a large enough effect in the signal ratio in the repeat runs, not every such curve was filed as active; inconclusive means weak or mixed curves, or effect the other way; inactive means no such curve, though single readings can be large or run the other way; the % refers to the signal ratio; further: potency means the concentration at half of the fitted maximal effect); settings: ER-beta-UAS-bla HEK293T, beta-lactamase FRET ratio, 16 h; activity, negative = inhibition: at 92.4 µM (top of the series) unless noted
In short: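 ER-beta-UAS-bla HEK293T cells in 2% charcoal-stripped FBS medium treated with compound plus 1nM final 17-beta-estradiol for 16 hr at 37C. Beta-lactamase reporter read by FRET substrate fluorescence after 2 hours at room temperature.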

[3] = qHTS assay to identify small molecule antagonists of the estrogen receptor beta (ER-beta) signaling pathway - cell viability counter screen (AID 1259382; active means well fitted curve in the direction sought with a large enough effect in the repeat runs; inconclusive means weak or mixed curves; inactive means no such curve, though single readings can be large; an effect the other way counts as inactive or inconclusive; further: nearly all actives have a fitted effect of over 55% in size; further: potency means the concentration at half of the fitted maximal effect)
In short: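 In this multiplexed counter screen, cells were seeded at 2,000 per well in medium with 2% charcoal-stripped FBS and incubated 6 hr before compound and 1nM final E2 were added. Sixteen hours later, ATP-based luminescence reported viability.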

[4] = qHTS assay to identify small molecule agonists or antagonists of the thyroid stimulating hormone receptor (TSHR) signaling pathway - wild type cell line counter screen (AID 1259384); settings: HEK293 wild type, cAMP HTRF counter-screen; cAMP activity change: at 92.4 µM (top of the series), hits give high values unless noted; further: potency means the concentration at half of the fitted maximal effect
In short: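 Wild-type Hek293 cells, 800/well, 18 h at 37C, then compound with Ro20-1724 for 30 min RT. cAMP by HTRF (cAMP-d2/anti-cAMP cryptate), 1 h RT, fluorescence read. 15 concentrations, triplicates.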

[5] = target: Thyrotropin receptor (Homo sapiens) (UniProt P16473); experiment: qHTS assay to identify small molecule antagonists of the thyroid stimulating hormone receptor (TSHR) signaling pathway (AID 1259385); settings: TSHR-HEK293 cAMP HTRF, TSH-stimulated antagonist mode; activity change, negative = inhibition: at 92.4 µM (top of the series) unless noted; further: nearly all actives have a fitted effect of over 20% in size; further: potency means the concentration at half of the fitted maximal effect; on activity change, negative = inhibition: on the % scale 0 is the no-effect control and ±100 the full control effect
In short: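 TSHR-HEK293 cells (800/well) plated 18 h, then compounds with Ro20-1724 and TSH at 1.5 ng/mL final, 30 min at room temperature. cAMP quantified by HTRF (cAMP-d2/anti-cAMP-cryptate, 1 h); 15 concentrations in triplicate.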

[6] = qHTS assay to identify small molecule agonists of the estrogen receptor alpha (ER-alpha) signaling pathway in the presence of an antagonist - cell viability counter screen (AID 1259386; active means well fitted curve in the direction sought with a large enough effect in the repeat runs; inconclusive means weak or mixed curves; inactive means no such curve, though single readings can be large; an effect the other way counts as inactive or inconclusive;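 further: potency means the concentration at half of the fitted maximal effect; cells exposed to compounds for 22 h at 37 °C before the viability read; nearly all actives have a fitted effect of over 30% in size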)
In short: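 Viability counter screen using VM7Luc4E2 (full-length ER-alpha, four ERE-luciferase). The cells were treated with compounds alongside ICI-182,780 10.0nM for 22hr, and live-cell protease fluorescence was quantified with CellTiter-Fluor.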

[7] = target: Progesterone receptor (Homo sapiens) (UniProt P06401); experiment: qHTS assay to identify small molecule agonists of the progesterone receptor (PR) signaling pathway (AID 1346784); settings: PR-UAS-bla HEK293T, beta-lactamase FRET ratio, 16 h; activation: at 92.4 µM (top of the series) unless noted; further: nearly all actives have a fitted effect of over 30% in size; further: potency means the concentration at half of the fitted maximal effect; on activation: on the % scale 0 is the no-effect control and ±100 the full control effect
In short: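 PR-UAS-bla HEK 293T cells (beta-lactamase reporter under UAS) in 2% charcoal-stripped FBS, dosed with 23 nL compound after 6 hr, incubated 16hr at 37C. LiveBLAzer B/G FRET substrate added, fluorescence read after 2 hours.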

[8] = target: Progesterone receptor (Homo sapiens) (UniProt P06401); experiment: qHTS assay to identify small molecule antagonists of the progesterone receptor (PR) signaling pathway (AID 1346795; active means well fitted inhibition curve with a large enough effect in the signal ratio in the repeat runs, not every such curve was filed as active; inconclusive means weak or mixed curves; the % refers to the signal ratio; further: potency means the concentration at half of the fitted maximal effect; on activity change, negative = inhibition: on the % scale 0 is the no-effect control and ±100 the full control effect); settings: PR-UAS-bla HEK293T, beta-lactamase FRET ratio, 16 h; activity change, negative = inhibition: at 92.4 µM (top of the series) unless noted
In short: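 PR-UAS-bla HEK293T cells with beta-lactamase reporter under UAS control, in 2% charcoal-stripped FBS, treated with compounds plus 1 nM promegestone (R5020, final) for 16 hr at 37C. Read-out: FRET beta-lactamase substrate fluorescence after 2 hr at room temperature.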

[9] = qHTS assay to identify small molecule antagonists of the progesterone receptor (PR) signaling pathway - cell viability counter screen (AID 1346798; active means well fitted curve in the direction sought with a large enough effect in the repeat runs; inconclusive means weak or mixed curves; inactive means no such curve, though single readings can be large; an effect the other way counts as inactive or inconclusive; further: potency means the concentration at half of the fitted maximal effect; nearly all actives have a fitted effect of over 50% in size)
In short: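 PR-UAS-bla HEK293T cells, 3,000/well in 2% charcoal-stripped FBS medium, dosed with compounds plus R5020 agonist and incubated 16 h at 37C. Viability then measured in the same wells by CellTiter-Glo luminescence after 30 min at RT.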

[10] = qHTS assay to identify small molecule agonists of the TGF-beta/Smad signaling pathway (AID 1346859; active means well fitted activation curve with a large enough effect in the signal ratio in the repeat runs, not every such curve was filed as active; inconclusive means weak or mixed curves; the % refers to the signal ratio; further: potency means the concentration at half of the fitted maximal effect); settings: SBE-bla HEK293T, TGF-beta/Smad beta-lactamase reporter, 5 h; activation: at 76.8 µM (top of the series) unless noted
In short: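 SBE-bla HEK293T cells plated overnight, then compound exposure for 5 h at 37 C. Beta-lactamase reporter read with LiveBLAzer B/G FRET substrate after 2 h at room temperature, fluorescence at 405 nm excitation, 460/530 nm emission.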

[11] = target: Thyrotropin-releasing hormone receptor (Homo sapiens) (UniProt P34981); experiment: qHTS assay to identify small molecule agonists of the thyrotropin-releasing hormone receptor (TRHR) signaling pathway (AID 1346891); further: potency means the concentration at half of the fitted maximal effect
In short: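 HEK293 cells expressing TRHR plated 18 h at 37 C/5% CO2, calcium dye-loaded 2 h at 37 C, then compound added (agonist mode); kinetic calcium fluorescence read 3 min at 1 s intervals; 15 concentrations in triplicate.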

[12] = qHTS assay to identify small molecule antagonists of the TGF-beta/Smad signaling pathway (AID 1346924; active means well fitted inhibition curve with a large enough effect in the signal ratio in the repeat runs, not every such curve was filed as active; inconclusive means weak or mixed curves; the % refers to the signal ratio); settings: SBE-bla HEK293T, TGF-beta/Smad reporter, beta-lactamase ratio; activity, negative = inhibition: at 76.8 µM (top of the series) unless noted
In short: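 SBE-bla HEK 293T cells were plated overnight, then received compound in DMSO plus TGF-beta1 (added as a 0.25 ng/mL solution) and were incubated 5 h at 37 C. Beta-lactamase reporter activity was read after 2 h at room temperature with LiveBLAzer B/G FRET substrate (ex 405, em 460/530 nm).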

[13] = qHTS assay to identify small molecule agonists of the progesterone receptor (PR) signaling pathway - cell viability counter screen (AID 1346799); further: potency means the concentration at half of the fitted maximal effect; nearly all actives have a fitted effect of over 45% in size
In short: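 Counter screen in the PR-UAS-bla HEK293T wells (2% charcoal-stripped FBS, 16 h compound exposure at 37 C) after the bla read. CellTiter-Glo added, 30 min at room temperature, luminescence read as cell viability.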

[14] = qHTS assay to identify small molecule agonists of the estrogen receptor beta (ER-beta) signaling pathway - cell viability counter screen (AID 1259380; active means well fitted curve in the direction sought with a large enough effect in the repeat runs; inconclusive means weak or mixed curves; inactive means no such curve, though single readings can be large; an effect the other way counts as inactive or inconclusive; further: potency means the concentration at half of the fitted maximal effect; nearly all actives have a fitted effect of over 30% in size)
In short: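 CellTiter-Glo read, 30 min RT, same wells as bla assay; cells ER-beta-UAS-bla HEK293T; 16 hr compound, 37C; medium 2% charcoal-stripped FBS.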

[15] = target: Androgen receptor (Homo sapiens) (UniProt P10275); experiment: qHTS assay to identify small molecule agonists of the androgen receptor (AR) signaling pathway in the presence of an antagonist (AID 1259381); further: on the % scale 0 is the no-effect control and ±100 the full control effect; nearly all actives have a fitted effect of over 15% in size
In short: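 Test compounds at 15 concentrations were incubated for 16hr with MDA-kb2 reporter cells in presence of 3.0uM nilutamide (final). Signal: ONE-Glo luciferase luminescence.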

[16] = qHTS assay to identify small molecule antagonists of the TGF-beta/Smad signaling pathway - cell viability counter screen (AID 1346824; active means well fitted curve in the direction sought with a large enough effect in the repeat runs; inconclusive means weak or mixed curves; inactive means no such curve, though single readings can be large; an effect the other way counts as inactive or inconclusive; further: potency means the concentration at half of the fitted maximal effect; nearly all actives have a fitted effect of over 50% in size)
In short: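 SBE-bla HEK 293T cells, incubated overnight, then compound plus 0.25 ng/mL TGF-beta1 (stock added) for 5 hr at 37 C. Viability was read in the same wells by CellTiter-Glo luminescence after 30 min at room temperature.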

[17] = target: Estrogen receptor (Homo sapiens) (UniProt P03372); experiment: qHTS assay to identify small molecule agonists of the estrogen receptor alpha (ER-alpha) signaling pathway in the presence of an antagonist (AID 1259383); further: potency means the concentration at half of the fitted maximal effect; nearly all actives have a fitted effect of over 15% in size
In short: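 Stably transfected VM7Luc4E2 reporter cells, kept 5 days in charcoal-stripped serum, received ICI-182,780 at 10.0nM final before compound addition. Following 22hr incubation at 37C and 5% CO2, luciferase signal was read by luminescence.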

[18] = target: Thyrotropin-releasing hormone receptor (Homo sapiens) (UniProt P34981); experiment: qHTS assay to identify small molecule antagonists of the thyrotropin-releasing hormone receptor (TRHR) signaling pathway (AID 1346877; active means well fitted inhibition curve with a large enough effect in the repeat runs, not every such curve was filed as active; inconclusive means weak or mixed curves; further: on the % scale 0 is the no-effect control and ±100 the full control effect)
In short: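 Following an 18 h incubation at 37 °C and a 2 h calcium dye load, TRHR-HEK293 cells were exposed to compound (5 min, room temperature) and challenged with TRH, 1 nM final.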
Tags describe the fitted curve by direction and shape or compound fluorescence and quenching.

UniProt P16473, sequence (P16473 whole entry, looked up): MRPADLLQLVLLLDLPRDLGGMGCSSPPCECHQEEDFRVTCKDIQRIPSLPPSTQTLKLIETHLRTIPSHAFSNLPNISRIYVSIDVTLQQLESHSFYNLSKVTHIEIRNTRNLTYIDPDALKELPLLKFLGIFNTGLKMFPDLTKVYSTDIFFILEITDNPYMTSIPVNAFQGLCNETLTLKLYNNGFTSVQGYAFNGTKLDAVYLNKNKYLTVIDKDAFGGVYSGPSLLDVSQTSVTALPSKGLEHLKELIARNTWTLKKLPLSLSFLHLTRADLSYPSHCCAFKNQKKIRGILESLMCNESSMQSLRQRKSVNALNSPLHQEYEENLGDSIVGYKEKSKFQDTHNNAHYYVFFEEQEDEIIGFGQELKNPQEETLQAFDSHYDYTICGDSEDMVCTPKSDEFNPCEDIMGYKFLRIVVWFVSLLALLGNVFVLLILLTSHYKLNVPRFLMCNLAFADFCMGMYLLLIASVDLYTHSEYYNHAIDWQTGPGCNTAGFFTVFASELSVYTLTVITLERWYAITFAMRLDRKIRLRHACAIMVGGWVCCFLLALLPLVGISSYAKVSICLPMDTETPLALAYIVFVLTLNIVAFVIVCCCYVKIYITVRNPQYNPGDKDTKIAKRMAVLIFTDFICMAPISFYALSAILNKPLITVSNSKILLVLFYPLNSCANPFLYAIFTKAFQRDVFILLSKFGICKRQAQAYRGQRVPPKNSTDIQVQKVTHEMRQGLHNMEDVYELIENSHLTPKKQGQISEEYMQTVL
UniProt Q92731, sequence (Q92731 whole entry, looked up): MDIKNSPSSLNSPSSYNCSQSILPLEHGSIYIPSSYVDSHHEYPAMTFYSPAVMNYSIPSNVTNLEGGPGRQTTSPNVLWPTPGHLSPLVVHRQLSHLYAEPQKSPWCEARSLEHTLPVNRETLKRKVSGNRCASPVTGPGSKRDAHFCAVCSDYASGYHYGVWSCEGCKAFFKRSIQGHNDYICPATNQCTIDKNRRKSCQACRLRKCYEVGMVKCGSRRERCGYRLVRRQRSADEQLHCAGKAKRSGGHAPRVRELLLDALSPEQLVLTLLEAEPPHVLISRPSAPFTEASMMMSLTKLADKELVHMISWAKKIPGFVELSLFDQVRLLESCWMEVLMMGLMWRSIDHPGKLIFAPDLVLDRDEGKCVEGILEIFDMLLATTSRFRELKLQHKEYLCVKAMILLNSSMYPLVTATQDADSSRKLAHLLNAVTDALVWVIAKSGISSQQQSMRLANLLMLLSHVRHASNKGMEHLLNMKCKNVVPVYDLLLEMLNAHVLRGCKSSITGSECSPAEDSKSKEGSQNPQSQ
UniProt P06401, sequence (P06401 whole entry, looked up): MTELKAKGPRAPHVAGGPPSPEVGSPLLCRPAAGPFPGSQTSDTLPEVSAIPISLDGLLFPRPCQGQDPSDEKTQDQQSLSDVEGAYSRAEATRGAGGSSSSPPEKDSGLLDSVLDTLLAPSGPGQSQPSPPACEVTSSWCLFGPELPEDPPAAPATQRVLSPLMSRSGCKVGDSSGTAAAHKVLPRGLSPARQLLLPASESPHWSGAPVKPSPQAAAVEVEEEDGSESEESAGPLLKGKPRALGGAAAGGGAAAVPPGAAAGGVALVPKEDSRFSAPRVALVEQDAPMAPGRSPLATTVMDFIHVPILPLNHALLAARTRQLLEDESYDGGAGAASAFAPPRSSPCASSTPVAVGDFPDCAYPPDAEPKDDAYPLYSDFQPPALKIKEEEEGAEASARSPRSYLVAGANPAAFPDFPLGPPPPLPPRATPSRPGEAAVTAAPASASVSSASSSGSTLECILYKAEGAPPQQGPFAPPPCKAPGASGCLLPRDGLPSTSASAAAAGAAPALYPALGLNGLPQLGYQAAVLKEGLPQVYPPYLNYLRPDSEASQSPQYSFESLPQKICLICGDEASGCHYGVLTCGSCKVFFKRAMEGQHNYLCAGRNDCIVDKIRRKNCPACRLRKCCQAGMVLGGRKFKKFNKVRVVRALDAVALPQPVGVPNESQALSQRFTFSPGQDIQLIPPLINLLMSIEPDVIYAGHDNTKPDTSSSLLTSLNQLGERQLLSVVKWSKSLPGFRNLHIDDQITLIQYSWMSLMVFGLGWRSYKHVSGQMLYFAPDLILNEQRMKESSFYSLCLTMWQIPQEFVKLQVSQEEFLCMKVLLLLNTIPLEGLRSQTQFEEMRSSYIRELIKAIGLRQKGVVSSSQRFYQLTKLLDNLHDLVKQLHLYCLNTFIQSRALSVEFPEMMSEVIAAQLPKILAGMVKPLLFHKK
UniProt P34981, sequence (P34981 whole entry, looked up): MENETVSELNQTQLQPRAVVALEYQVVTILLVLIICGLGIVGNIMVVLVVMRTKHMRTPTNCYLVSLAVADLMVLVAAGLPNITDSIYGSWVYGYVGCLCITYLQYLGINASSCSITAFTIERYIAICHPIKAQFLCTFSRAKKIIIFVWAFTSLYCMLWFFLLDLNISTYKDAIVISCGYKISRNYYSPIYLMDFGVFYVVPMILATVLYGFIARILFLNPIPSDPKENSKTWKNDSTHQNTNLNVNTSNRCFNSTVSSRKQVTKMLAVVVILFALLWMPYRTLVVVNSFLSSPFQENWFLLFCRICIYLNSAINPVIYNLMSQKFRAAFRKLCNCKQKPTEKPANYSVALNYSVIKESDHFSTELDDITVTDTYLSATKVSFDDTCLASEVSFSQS
UniProt P10275, sequence (P10275 whole entry, looked up): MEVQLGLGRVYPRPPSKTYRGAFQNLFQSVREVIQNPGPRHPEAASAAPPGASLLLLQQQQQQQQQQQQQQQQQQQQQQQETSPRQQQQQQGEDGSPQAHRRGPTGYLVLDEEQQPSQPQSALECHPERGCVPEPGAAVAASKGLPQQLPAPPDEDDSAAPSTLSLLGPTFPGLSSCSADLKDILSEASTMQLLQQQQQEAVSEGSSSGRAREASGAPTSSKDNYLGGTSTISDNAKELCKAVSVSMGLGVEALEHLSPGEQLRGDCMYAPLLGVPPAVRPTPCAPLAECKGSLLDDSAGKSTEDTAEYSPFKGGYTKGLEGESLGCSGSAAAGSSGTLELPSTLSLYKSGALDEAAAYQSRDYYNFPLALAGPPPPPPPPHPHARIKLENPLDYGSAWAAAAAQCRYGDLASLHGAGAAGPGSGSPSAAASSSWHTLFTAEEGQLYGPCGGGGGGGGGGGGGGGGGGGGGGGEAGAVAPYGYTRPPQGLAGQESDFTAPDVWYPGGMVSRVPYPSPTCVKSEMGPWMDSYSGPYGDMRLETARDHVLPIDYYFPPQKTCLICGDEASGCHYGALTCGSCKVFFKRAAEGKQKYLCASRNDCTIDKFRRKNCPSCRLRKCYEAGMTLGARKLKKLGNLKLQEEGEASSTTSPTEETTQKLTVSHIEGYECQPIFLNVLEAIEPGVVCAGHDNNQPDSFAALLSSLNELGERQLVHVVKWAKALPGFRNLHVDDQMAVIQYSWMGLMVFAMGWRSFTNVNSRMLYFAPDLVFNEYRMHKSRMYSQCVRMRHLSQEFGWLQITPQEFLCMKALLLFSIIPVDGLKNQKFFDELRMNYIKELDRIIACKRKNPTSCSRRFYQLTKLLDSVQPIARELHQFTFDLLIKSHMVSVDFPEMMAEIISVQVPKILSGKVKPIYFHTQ
UniProt P03372, sequence (P03372 whole entry, looked up): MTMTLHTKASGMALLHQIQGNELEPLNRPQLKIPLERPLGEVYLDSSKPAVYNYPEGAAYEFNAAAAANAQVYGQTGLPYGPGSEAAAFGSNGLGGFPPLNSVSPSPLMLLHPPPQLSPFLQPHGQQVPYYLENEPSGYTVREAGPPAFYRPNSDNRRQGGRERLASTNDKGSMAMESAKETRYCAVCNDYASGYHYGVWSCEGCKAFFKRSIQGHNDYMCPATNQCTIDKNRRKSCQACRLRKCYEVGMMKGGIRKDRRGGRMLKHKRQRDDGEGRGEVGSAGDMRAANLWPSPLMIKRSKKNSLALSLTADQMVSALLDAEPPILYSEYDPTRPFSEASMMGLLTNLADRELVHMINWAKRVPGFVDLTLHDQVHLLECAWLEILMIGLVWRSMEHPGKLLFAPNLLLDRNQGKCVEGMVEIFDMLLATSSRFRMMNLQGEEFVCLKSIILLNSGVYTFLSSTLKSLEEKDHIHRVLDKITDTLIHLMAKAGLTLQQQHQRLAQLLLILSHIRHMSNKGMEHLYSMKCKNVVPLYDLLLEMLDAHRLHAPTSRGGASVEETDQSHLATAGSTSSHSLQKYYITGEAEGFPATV

C[n+]1c2cc(N)ccc2cc2ccc(N)cc21 (tested in a mixture with another compound)
active: Potency [11] 7.56 µM
inconclusive: Potency [1] 11.9 µM [fluorescent] | Potency [2] 10.6 µM [partial curve] | Potency [3] 9.44 µM [cytotoxic, partial curve] | Potency [4] 15.8 µM | Potency [5] 11.9 µM | Potency [6] 26.6 µM [rising, partial curve] | activation [7] -17.3% [at 42.5 µM] | Potency [8] 11.9 µM | Potency [9] 13.3 µM [cytotoxic, single point] | Potency [10] 7.56 µM [rising, full curve] | activity, negative = inhibition [12] 18.3% [at 35.3 µM]

Cc1ccc(N)cc1O
inconclusive: Potency [1] 24.3 µM [fluorescent] | Potency [2] 48.6 µM [fluorescent, partial curve] | Potency [3] 68.6 µM [cytotoxic, single point] | activity change, negative = inhibition [5] 2.8% [phenotype inactive] | Potency [6] 68.6 µM [cytotoxic, partial curve, poor fit] | activation [7] 24% | activity change, negative = inhibition [8] -0.359% [phenotype inactive] | Potency [9] 61.1 µM [rising, partial curve] | Potency [13] 34.4 µM [rising, partial curve, poor fit] | activity, negative = inhibition [12] 25.5%

CN1CCN(CCC(=O)N2c3ccccc3Sc3ccc(C(F)(F)F)cc32)CC1
active: Potency [2] 21.1 µM | Potency [14] 13.3 µM | Potency [8] 26.6 µM | Potency [9] 18.8 µM | Potency [13] 23.7 µM
inconclusive: Potency [1] 13.3 µM [rising, full curve] | Potency [5] 33.5 µM [falling, single point] | Potency [7] 33.5 µM [cytotoxic, single point] | activity, negative = inhibition [12] -27.5% [at 35.3 µM]

Clc1sc(Cl)c(Cl)c1Cl
inactive: Potency [1] | Potency [2] | Potency [15] | Potency [5]

CCN(CC)CCNC(=O)c1c(C)[nH]c(/C=C2\C(=O)Nc3ccc(F)cc32)c1C
active: Potency [2] 33.5 µM | Potency [14] 11.9 µM | Potency [3] 11.9 µM | Potency [9] 11.9 µM
inconclusive: Potency [1] 33.5 µM | cAMP activity change [4] -1.39% [at 42.5 µM, hits give high values] | Potency [5] 23.7 µM [falling, partial curve] | Potency [13] 9.44 µM [cytotoxic, partial curve, poor fit] | activity, negative = inhibition [12] -9.08% [at 35.3 µM]

CCCCCCCCCCCCCOS(=O)(=O)O
active: Potency [14] 54.5 µM
inconclusive: activation [1] 0.062% | activity, negative = inhibition [2] -32% | Potency [3] 68.6 µM [cytotoxic, single point] | Potency [9] 24.3 µM [cytotoxic, full curve] | Potency [13] 13.7 µM [cytotoxic, full curve, poor fit] | Potency [16] 0.49 µM [cytotoxic, single point]

O=C(/C=C/c1ccccc1)OCCCc1ccccc1
inactive: Potency [1] | Potency [2] | Potency [3] | Potency [8]

O=[N+]([O-])c1cc(C2CCCCC2)c(O)c([N+](=O)[O-])c1
active: Potency [8] 24.3 µM
inconclusive: Potency [1] 27.2 µM [rising, partial curve] | Potency [2] 19.3 µM [rising, partial curve] | Potency [7] 2.72 µM [falling, single point] | Potency [9] 68.4 µM [cytotoxic, single point] | Potency [13] 4.31 µM [rising, full curve, poor fit] | Potency [10] 24.5 µM [rising, full curve] | activity, negative = inhibition [12] -1.93%

CC(C)COC(=O)c1ccc(N)cc1
inconclusive: activation [1] 5.27% [at 42.5 µM] | activity, negative = inhibition [2] -22.4% [at 42.5 µM] | Potency [17] 11.9 µM [activator, partial curve]
inactive: Potency [5] | Potency [18]

COc1ccc(OC(F)(F)F)cc1CN[C@H]1CCCN[C@H]1c1ccccc1
inconclusive: Potency [1] 68.6 µM [rising, single point] | Potency [2] 68.6 µM | Potency [5] 68.6 µM | Potency [8] 1.37 µM [falling, single point] | Potency [10] 49 µM [rising, partial curve, poor fit] | activity, negative = inhibition [12] -8.41%
active: Potency [3] 30.6 µM | Potency [13] 24.3 µM
